The other results are listed elsewhere or left out. At the low end of the ranking the order means little.
The sequences below were run against T1, GST-Rok (full length) (UniProt O34857) (assay: protein binding microarray). Conditions: Rok is a gene silencer of Bacillus subtilis; high values mean tight binding; most listed sequences are background and not binding sites; double strand, one strand shown.
T1 sequence: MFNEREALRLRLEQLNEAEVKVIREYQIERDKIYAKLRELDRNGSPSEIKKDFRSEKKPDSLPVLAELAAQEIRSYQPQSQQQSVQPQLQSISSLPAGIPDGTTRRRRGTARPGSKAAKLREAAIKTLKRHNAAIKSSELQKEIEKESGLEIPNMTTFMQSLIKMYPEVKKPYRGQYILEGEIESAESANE
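Further: rank score from −0.5 (least bound) to 0.5 (best bound).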

Sequence	binding signal [E-score]
GTCGCATA	-0.0549
CCTAAATC	-0.1
CATCTACG	0.0251
AACTATCT	0.331
CCCACACG	-0.365
ACTATGCG	0.0516
AGGAATGC	-0.0829
CGGTTAAC	0.164
TACACACA	0.0485
GCAAAATA	0.184
ATTACCTA	0.382
AGGCCGGC	-0.226
CTACATAC	0.269
GACATTGC	-0.136
ATGGTAGG	0.243
CCACGGAC	-0.154
CCCTCTGC	-0.222
ACCCTGAC	-0.167
GGCAGCTA	-0.0821
AGCACCAA	-0.086
CTTACATA	0.211
ACTGGTAA	0.277
CCTATGAG	0.000244
ACCGCTGG	-0.0482
ACTACGGA	0.119

Sequence	binding signal [E-score]
GACGCTCC	-0.155
GCCTGGCA	-0.345
AACACTGT	-0.00154
GTACAATA	0.304
CTGCGCCA	-0.24
ATATTAAC	0.298
CTTCCGCA	-0.0431
CAACGAGC	-0.148
AGCGCGAA	0.142
AATCCACG	0.0115
ATAAGACA	0.105
AAGTTGGG	-0.114
GGGGTTAC	-0.237
CGTGGTGA	-0.00549
AGGGTACT	0.131
AACTGCTA	-0.0323
AAAGCTCT	-0.0882
AAGGGCGT	-0.277
AGAGATGG	-0.13
AATGGTCC	0.00517
CGAATGGA	0.112
ATGTTGCC	-0.0627
CCATGAGG	-0.052
CGCAGCCA	-0.187
GACGGGAC	-0.35

Sequence	binding signal [E-score]
ACACAATG	0.0181
AGGTGATG	-0.0761
GATGTAAC	0.071
CGTGGCAA	-0.156
ATTCACGA	-0.0154
GTCTTCTA	0.116
AGTTTGGA	0.18
CTGTTCTA	0.142
GGGTCCTA	-0.079
AGGCAGGC	-0.336
ACTGACCC	-0.226
AATACGGC	-0.0443
ACTACTAT	0.465
GCAGCTAA	0.0215
ATCGACGC	-0.109
AAAGGCGT	-0.101
GCTATTAC	0.269
CATAGAGC	-0.0937
CCATGCGG	-0.151
ATACCAAG	-0.0148
ACGTCTGG	-0.0674
TCGAGGAA	-0.082
ACGCCCCC	-0.307
CCATTATC	0.176
GTAGTATA	0.423

Sequence	binding signal [E-score]
TAGTAGCA	0.258
ATGGATAC	0.105
CTACGGTA	0.175
ATTGAGGC	-0.219
TCGACAAA	0.0413
AGTTGTAC	0.259
AGACCCAC	-0.204
CCGGAATA	0.18
AGCGGGAA	-0.261
ACGTCGGG	-0.296
CCCAGCCG	-0.339
CGTGGTTA	0.0207
CACTCACG	-0.0587
ATACGGAC	0.0468
TTAGCAAA	0.193
AGACATAA	0.0576
GCGTAGTA	0.17
AGATGCGC	-0.078
AACAAAGG	0.0427
GAAGGGTA	-0.119
AATATTGG	0.103
GCTGTAAA	0.151
GAGCACGC	-0.216
AGGAGACA	-0.111
CTTCGACA	0.0981

Sequence	binding signal [E-score]
AAGATCAC	0.187
ACGAAATG	0.266
TATTGAGA	0.144
CTTCCCTC	-0.276
AAGCATCC	-0.194
CTTGGTTA	-0.000206
ATTAGTAG	0.321
CCGAGCTC	-0.0815
ATTGAATA	0.152
CGGTCCTA	0.0495
CCAGGAAA	-0.0397
CTCGAAAC	0.0616
GTGATGAA	-0.0945
CCAGATGG	-0.226
CGACATCA	-0.0327
CCATTAGC	0.0149
CGGTTGCC	-0.204
AAATAACT	0.301
AGGTCATA	-0.0849
ACGTCCGC	-0.108
CAGTAATC	0.0358
CAGTCGTA	0.0302
ATTCCCAG	0.0539
AGGTAGTC	0.0956
GACTATTA	0.157

Sequence	binding signal [E-score]
TCCGAGCA	-0.0443
GGGAAGTA	0.17
AACGGGAC	-0.135
AGTTAGAA	0.216
CACCGTGC	-0.18
CTTTTAGA	-0.223
CAATCGAG	0.0306
GCTTAGTA	0.173
GGCTCAGA	-0.171
GGACTGCC	-0.308
ATTTCCGG	0.00643
CATGTCGC	0.00122
CCGAAAAG	0.111
ACAGACTC	-0.119
TGGAGCCA	-0.151
GGGTATCA	-0.113
ACGTGACG	-0.186
CCGTAAGG	-0.352
CGACATCG	0.0122
CGCTAGAA	0.269
TATGTTGA	0.201
CAGGCCGG	-0.159
ATGGGATG	-0.052
AAATTGCA	0.0879
ATCTCAGG	0.0391

Sequence	binding signal [E-score]
ATTCAAAG	-0.0764
GACAATAA	0.139
CGCGGCCG	-0.3
GCACGCGA	-0.188
AGAAATGC	-0.0536
CCTTATTA	0.0164
GCCGCGTA	0.00524
GCGGGCCA	-0.363
AGACAGGG	-0.179
CCATGTGC	-0.0638
TGTCATAA	0.146
GATGCTCC	-0.191
CGCCCCAA	-0.264
CCAAAGAC	-0.185
AACGAACT	0.163
ACCGTTCT	0.0843
AAAAATCA	0.101
AGCACCAC	-0.177
ATGATCTG	0.0326
GTCATCGA	0.0855
GCTGCTCC	-0.369
GAATCCCA	-0.18
AAGGAGAT	-0.00602
CTAATATA	0.349
GAAAGTAC	0.321

Sequence	binding signal [E-score]
TACTCACA	0.0135
ATGGGTAG	0.263
ATTATCCC	0.205
AGAAACAA	0.253
AGTACATG	0.131
GCAATTGA	0.146
ACAGTGCC	0.00808
GTGAGCGA	-0.169
ACGCGTGA	-0.0933
AAAGACGC	-0.0887
ATTGTCTC	0.0458
CAAGAGGA	-0.231
ATAAATCG	0.238
ATATGAGA	0.0881
ATCCGGCC	-0.173
AGTGGAAC	-0.038
AGAGGTGG	-0.104
CAGGCGCG	-0.0887
GTATGAGA	0.0785
TAGGTTGA	0.0689
CTGAGCAA	0.0253
ACGTGATC	0.1
CCAGGTAG	0.0972
GCTTCAAA	-0.299
TCCGTCGA	-0.0492

Sequence	binding signal [E-score]
ACACGGAA	-0.0276
AGCGAGGG	-0.224
ACTTCGTC	-0.0747
AAGCGTTA	-0.118
AACGTATC	0.0544
AACTCCTT	-0.272
AATCACAC	0.102
ACGTGAGC	-0.173
GCGAATCA	-0.236
CTACTTTA	0.31
AGCCCTTC	-0.17
CCGCGGTC	-0.302
AGCTCTAT	0.0862
AGCACCTA	0.0334
CTGAAACA	-0.325
GAGAGTAA	0.0727
CTCAATCA	-0.176
AGCTACGC	0.0208
GGTGGAAC	-0.21

— article PMC6212790
